In patent US6905846:

Tested on: recombinant factor X (rFX), expressed in CHO cells from human factor X cDNA
Sequence (chain, as listed by the source): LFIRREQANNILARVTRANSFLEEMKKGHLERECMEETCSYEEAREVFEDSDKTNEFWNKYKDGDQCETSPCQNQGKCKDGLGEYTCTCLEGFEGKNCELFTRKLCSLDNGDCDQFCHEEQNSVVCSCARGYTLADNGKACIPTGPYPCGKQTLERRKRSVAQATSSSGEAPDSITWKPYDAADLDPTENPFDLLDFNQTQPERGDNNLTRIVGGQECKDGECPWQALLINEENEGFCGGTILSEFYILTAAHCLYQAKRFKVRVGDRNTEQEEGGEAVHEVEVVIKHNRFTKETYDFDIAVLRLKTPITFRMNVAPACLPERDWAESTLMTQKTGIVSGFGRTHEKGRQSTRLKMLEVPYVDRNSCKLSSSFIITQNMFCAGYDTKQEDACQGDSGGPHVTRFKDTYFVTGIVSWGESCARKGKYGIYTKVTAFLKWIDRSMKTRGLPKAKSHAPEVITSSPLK

For “rfurin ÿTM6xHis (r-furin derivative, as CHO cell culture supernatant; patent application EP 0 775 750) (sequence not shown)”, the “N-termini of rFX processing products (Edman analysis) after 12 hours at 37° C. with CHO-r-furin supernatant” value was “After incubation of rFX from CHO cells (c) and CHO-FD11 cells (e) in the presence of furin, only light and heavy chains having correct N-termini are found”, the activity (mU), FX Coatest after RVV activation, incubation 0 days was 853 mU and the activity (mU), FX Coatest after RVV activation, incubation 1 day was 1020 mU. The activity (mU), FX Coatest after RVV activation, incubation 2 days was 1100 mU, the activity (mU), FX Coatest after RVV activation, incubation 3 days was 1140 mU and the activity (mU), FX Coatest after RVV activation, incubation 4 days was 1200 mU. For the same substance, the “processing of single chain and propeptide containing rFX to light/heavy chain (Western blot)” value was “CHO-rFX/CHO-rfurin shows almost complete processing already after 2 hours of incubation at 37 °C”.
